For some of these results: The strong results were mostly taken out for another list; the other results follow. This is a selection; strong and weak results do not stand in their true shares.
Tests used:
Conditions in all cases: concentration: 1 μM,replicates: in singlicate; n = 1
PIM2 = system: PIM2
PIM3 = system: PIM3
PIP5K1A = system: PIP5K1A
PIP5K1C = system: PIP5K1C
PIP5K2B = system: PIP5K2B
PIP5K2C = system: T1, PIP5K2C
T1 construct: gene PIP4K2C

PKAC-alpha = system: T2, PKAC-alpha
T2 construct: gene PRKACA

PKAC-beta = system: T3, PKAC-beta
T3 construct: gene PRKACB

PKMYT1 = system: PKMYT1
PKN1 = system: PKN1
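Also: KINOMEscan kinase panel screen.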

Row | Compound | %Inh (PIM2) [%] | %Inh (PIM3) [%] | %Inh (PIP5K1A) [%] | %Inh (PIP5K1C) [%] | %Inh (PIP5K2B) [%] | %Inh (PIP5K2C) [%] | %Inh (PKAC-alpha) [%] | %Inh (PKAC-beta) [%] | %Inh (PKMYT1) [%] | %Inh (PKN1) [%]
1 | O=C1NC(=O)C(c2ccccc2)=C1Nc1cc(Cl)c(O)c(Cl)c1 [SB-390530] | 5 | 17 | 0 | 100 | 0 | 0 | 0 | 0 | 0 | 0
2 | O=C1NC(=O)C(c2ccc(Cl)cc2)=C1Nc1cccc(C(=O)O)c1 [SB-360737] | 0 | 0 | 0 | 0 | 0 | 6 | 0 | 16 | 0 | 38
3 | COc1cccc(C2=C(Nc3ccc(SC)cc3)C(=O)NC2=O)c1 [SB-331032] | 0 | 0 | 23 | 4 | 4 | 45 | 0 | 1 | 0 | 0
4 | COc1ccc(C2=C(Nc3cccc(Cl)c3)C(=O)NC2=O)cc1 [SB-326892] | 0 | 0 | 0 | 5 | 31 | 0 | 0 | 11 | 0 | 8
5 | O=C1NC(=O)C(c2ccccc2Cl)=C1Nc1cccc(C(=O)O)c1 [SB-390526] | 0 | 1 | 56 | 59 | 0 | 38 | 0 | 0 | 14 | 0
6 | CS(=O)(=O)c1ccccc1-c1nc(-c2ccc(F)cc2)c(-c2ccncc2)[nH]1 [SB-213663] | 0 | 0 | 9 | 6 | 0 | 18 | 81 | 77 | 7 | 0
7 | O=C1NC(=O)C(c2ccccc2)=C1Nc1ccc(Cl)c(C(=O)O)c1 [SB-390532] | 0 | 2 | 51 | 61 | 17 | 68 | 0 | 0 | 0 | 0
8 | O=C1NC(=O)C(c2ccc(Cl)cc2)=C1Nc1ccccc1 [SB-317661] | 0 | 7 | 1 | 0 | 0 | 23 | 0 | 0 | 0 | 0
9 | O=C1NC(=O)C(c2ccc(Cl)cc2)=C1Nc1ccc(O)c(Cl)c1 [SB-405367] | 16 | 9 | 8 | 0 | 1 | 0 | 2 | 0 | 0 | 0
10 | O=C1NC(=O)c2c1c(-c1ccccc1)cc1[nH]c3ccc(O)cc3c21 | 84 | 91 | 76 | 34 | 0 | 7 | 0 | 20 | 43 | 75
11 | Cc1cc(C)cc(Oc2nccc(-c3c(-c4ccc(F)cc4)ncn3C3CCNCC3)n2)c1.O=C(O)C(F)(F)F.O=C(O)C(F)(F)F.O=C(O)C(F)(F)F [SB-284851] | 20 | 0 | 0 | 33 | 0 | 19 | 12 | 34 | 0 | 0
12 | O=C1NC(=O)C(c2ccccc2Cl)=C1Nc1ccccc1 [SB-376715] | 0 | 3 | 3 | 37 | 11 | 9 | 8 | 0 | 7 | 47
13 | O=C(O)c1ccc(-c2nc(-c3ccc(F)cc3)c(-c3ccncc3)[nH]2)cc1 [SB-202620] | 24 | 1 | 0 | 0 | 14 | 0 | 19 | 0 | 6 | 0
14 | Cc1ccc(C)c(Oc2nccc(-c3c(-c4ccc(F)cc4)ncn3C3CCNCC3)n2)c1.O=C(O)C(F)(F)F.O=C(O)C(F)(F)F.O=C(O)C(F)(F)F [SB-284852] | 24 | 0 | 15 | 23 | 0 | 28 | 10 | 33 | 1 | 0
15 | CSc1ccc(NC2=C(c3cccc(Cl)c3)C(=O)NC2=O)cc1 [SB-341528] | 10 | 0 | 100 | 0 | 0 | 0 | 17 | 18 | 0 | 0
16 | O=C1NC(=O)C(c2ccc(Cl)cc2)=C1Nc1cccc(O)c1 [SB-333613] | 13 | 19 | 5 | 49 | 0 | 42 | 22 | 0 | 3 | 12

From publication PMC5540273 (PLoS ONE, 2017)
